According to PubChem BioAssay AID1963576 (National Center for Advancing Translational Sciences (NCATS), 2024):
Among all 46,000 compounds or so, about 60 (0.1%) were called active. Another 3% or so got no clear call; they are omitted. Calls come from the whole dose curve; as a rule, active = well fitted inhibition curve with a large enough effect; inconclusive = small, poorly fitted or top-dose-only effect; inactive = no such curve, though single readings can be large or run the other way. The list shows a part of the results.

Test: Primary qHTS assay for Inhibitors of ovarian cancer metastasis using an organotypic tumor microenvironment (TME) model.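 For activity change, negative = inhibition: plate controls were DMSO wells for no effect and tomatine positive control wells for full effect.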 Note: nearly all actives have a fitted effect of over 65% in size.
Conditions: SKOV3ip1-GFP adhesion/invasion on 3D omental model, fluorescence; series mostly up to 45.8 µM; activity change, negative = inhibition: at the top concentration
Outline: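 A 3D layer of primary human omental fibroblasts, mesothelial cells, fibronectin and collagen I, grown 48 hr, received SKOV3ip1-GFP cells in serum-free medium plus compounds at 0.36-46 umol/L. After 2 hr RT and 16 hr 37 C, fixed adherent GFP cells were counted; normalized to DMSO and tomatine.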

Structure (SMILES) | activity change, negative = inhibition | outcome
CCN1CCN(C(c2ccc(OC)cc2)c2c(O)cc(C)n(Cc3ccco3)c2=O)CC1 (stereo not given) | inactive: 52.2% | –
CC1CCCCN1C(=O)Cn1c(=O)n(-c2ccc(Cl)cc2)c(=O)c2c3c(sc21)CCC3 (stereo not given) | inactive: 21.8% | –
Oc1cccc(-c2nc(N3CCOCC3)c3oc4ncccc4c3n2)c1 | inactive: -11% [at 92.2 µM] | –
COc1cccc(NC(=O)Cn2c(=O)cc(C)c3c(C)nn(-c4cccc(F)c4)c32)c1 | inactive: 3.29% | –
Cc1ccc(-n2ncc(C(=O)NCCc3ccccc3)c2C2CCN(C(=O)OC(C)(C)C)CC2)c(C)c1 | inactive: 17.5% | –
CC(=O)c1ccc(S(=O)(=O)Nc2ccc(-c3ccc(N4CCCCCC4)nn3)cc2)cc1 | inactive: 3.33% | –
Cc1ccc2c(=O)cc(C(=O)Nc3ccc(S(=O)(=O)N4CCC(C)CC4)cc3)oc2c1C | inactive: -1.76% | –
COCCCn1c(=N)c(C(=O)NCC2CCCO2)cc2c(=O)n3cc(C)ccc3nc21 (stereo not given) | – | inactive
Cc1ccc(Nc2c(-c3ccc(N(C)C)cc3)nc3nc[nH]n23)cc1 | – | inactive
CSc1nc(=O)c2c(n1C)NC(=O)CC2c1ccccc1OC(C)C (stereo not given) | inactive: 1.56% | –
COc1ccc(-c2nc3ccccc3n3c(-c4cccc(C)c4)c4c(=O)n(C)c(=O)n(C)c4c23)cc1 | inactive: 5.72% | –
Cc1ccc(CSc2nnc(-n3c(=O)c(C#N)cc4c(=O)n5cccc(C)c5nc43)s2)cc1 | inactive: -7.76% | –
COc1cccc(-c2nn3c(=O)cc(CN4CCN(S(=O)(=O)c5ccc(C)cc5)CC4)nc3s2)c1 | inactive: -17% | –
O=C(Cc1ccccc1)Nc1sc2c(c1C(=O)Nc1ccccc1)CCCCC2 | inactive: 0.71% | –
COc1cc(C2CC(=O)Nc3c2c(C)nn3-c2nc(C)cc(C)n2)cc(OC)c1O (stereo not given) | inactive: 13.4% | –
COC(=O)CC1Oc2ccccc2-n2cc(-c3ccc(C)cc3)nc21 (stereo not given) | – | inactive
COc1cccc(CNCCSc2nnnn2C)c1OCc1ccccc1 | inactive: 13.8% | –
CCc1ccc2c(c1)c(=O)c(S(=O)(=O)c1ccc(Cl)cc1)cn2CC | inactive: 1.98% | –
CCOc1ccc(CCNC(=O)CCCn2c(=O)c3cccn3c3cccnc32)cc1OCC | inactive: 21.3% | –
O=C(CC1(O)C(=O)N(CCc2ccccc2)c2ccc(Br)cc21)c1ccc(F)cc1 (stereo not given) | inactive: -6.97% | –
Cc1nn(Cc2ccc(Cl)c(Cl)c2)c(C)c1NC(=O)c1noc2c1CCc1ccccc1-2 | inactive: -3.57% | –
COc1cccc(-c2cn3c(n2)sc2cc(C(=O)NCCCc4ccccc4)ccc23)c1 | inactive: 2.91% | –
CSc1ccc(CNC(=O)C2CCCN(S(=O)(=O)N(C)c3ccc(F)cc3)C2)cc1 (stereo not given) | inactive: -3.46% | –

Structure (SMILES) | activity change, negative = inhibition | outcome
Cc1ccc(S(=O)(=O)NCC2CCC(C(=O)NCc3ccc(F)cc3)CC2)cc1 (stereo not given) | inactive: 14.5% | –
CCCn1ccc2c(OCC(=O)Nc3cc(C)ccc3C)cccc2c1=O | – | inactive
CCc1ccc(CNC(=O)c2cc3cc(S(=O)(=O)N4CCCCC4)ccc3n2C)cc1 | inactive: 34.1% | –
Nc1c(C(=O)NCc2ccc(Cl)cc2Cl)nnn1Cc1ccc(Br)cc1 | inactive: -0.939% | –
NC[C@@H]1O[C@@H](O[C@H]2[C@@H](O)[C@H](O[C@@H]3[C@@H](O)[C@@H](N)C[C@H](N)[C@H]3O[C@H]3O[C@H](CN)[C@@H](O)[C@@H](O)[C@H]3N)O[C@H]2CO)[C@H](N)[C@@H](O)[C@@H]1O | inactive: 37.3% | –
COc1cc2c(=O)n(Cc3ccccc3Cl)c(=O)n(CC(=O)Nc3ccccc3)c2cc1OC | inactive: 18.8% | –
Cc1ccc2nc(NC(=O)CSc3nc4c(c(=O)n3-c3ccccc3)SCC4)sc2c1 | inactive: -5.35% | –
O=C(CCC(=O)N1CC2CCCN2c2ccccc21)NCc1cccc(Cl)c1 (stereo not given) | inactive: -23.3% | –
O=C(Nc1ccc(F)cc1F)C(Cc1ccccc1)N1Cc2ccccc2C1=O (stereo not given) | inactive: 9.91% | –
COc1cccc(-n2c(-c3ccc(Cl)cc3)cc3c2CC(C)(C)CC3=O)c1 | inactive: -4.08% | –
COc1ccc(C)cc1NC(=O)C1CCN(S(=O)(=O)c2c(C)noc2/C=C/c2ccco2)CC1 | inactive: -6.27% | –
CCOc1ccc(NC(=O)CCC(=O)N2CC(C)Oc3ccc(C)cc32)cc1 (stereo not given) | inactive: 2.77% | –
COc1ccc(CN2C(=O)c3oc4ccc(F)cc4c(=O)c3C2c2ccc(O)cc2)cc1 (stereo not given) | inactive: 13.6% | –
Cc1ccc(-c2nnc(SCC(=O)NC3CCCC3)nc2-c2ccc(C)cc2)cc1 | inactive: -8.87% | –
Cc1ccc(C(=O)Nc2nc3ccc(S(=O)(=O)N4CCCC4)cc3s2)cc1 | inactive: -3.49% | –
Cc1nc(N2CCOCC2)c2c(C(=O)NCCc3ccccc3)c(C)oc2n1 | inactive: 0.204% | –
CCCCn1cc2c(c1-c1ccccc1Br)c(=O)n(C)c(=O)n2C | – | inactive
Cc1ccc(C(=O)n2nc(-c3ccco3)nc2NCc2cccs2)cc1 | inactive: -1.56% | –
O=C(CSc1nc2c(c(=O)[nH]1)CN(Cc1ccc(F)cc1)CC2)Nc1ccccc1Cl | inactive: 1.26% | –
O=C(NCCc1ccccc1Cl)c1ccc2c(c1)nc1n2CCOC1 | inactive: 5.08% | –
O=C(NCCc1ccccc1)C1(c2cccs2)CCOCC1 | inactive: 7.52% | –
CN(C)S(=O)(=O)n1cc(/C=C(\NC(=O)c2ccccc2Cl)C(=O)NCCCn2ccnc2)c2ccccc21 | inactive: 4.66% | –
